The source of these data is PubChem BioAssay AID1240 (Sanford-Burnham Center for Chemical Genomics, 2008).

Among all 50,000 compounds or so, about 800 (1.6%) showed an effect of 50% or more. The list shows a part of the results.

The assay concerns the target Bcl-2-like protein 10 (Homo sapiens) (UniProt Q9HD36). Kind of assay: TR3 peptide-Bcl-B binding displacers, biochemical primary FP assay, phenotype converters (AID 1240).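 Note: 0% = Bcl-B with tracer peptide and DMSO and 100% = tracer peptide lacking Bcl-B.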 Conditions: GST-Bcl-B / FITC-TR3 peptide fluorescence polarization; stronger effect = higher value; compound at 3.75 mg/L.
Chain of UniProt Q9HD36 (Q9HD36 whole entry, looked up): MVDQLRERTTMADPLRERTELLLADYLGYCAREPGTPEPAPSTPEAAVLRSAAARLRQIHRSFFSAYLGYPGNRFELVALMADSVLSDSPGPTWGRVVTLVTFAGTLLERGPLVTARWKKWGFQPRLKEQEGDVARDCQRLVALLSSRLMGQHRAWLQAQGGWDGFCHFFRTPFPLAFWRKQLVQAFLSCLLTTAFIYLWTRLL
Regarding `O=C(O)CN(Cc1ccco1)S(=O)(=O)c1ccccc1`, the displacement was -2.9%. On to `Cc1ccc(C(=O)Nc2ccccc2C(=O)Nc2ccccc2C(=O)O)cc1`, for which the displacement was found to be 11.6%. With `CC(=O)NC1=NC(=O)/C(=C\c2ccc(C(C)(C)C)cc2)S1`, the displacement was 11.4%. To `COc1ccc(C2NC(=S)NC(C)=C2C(=O)Nc2cccc(Cl)c2)cc1` (stereo not drawn) belongs 20.9%; to `O=[N+]([O-])c1cccc(S(=O)(=O)/N=C(/Nc2ccccc2)c2ccccc2)c1`, -3.4%.

On to `Cc1cc(C)n(C(=O)COc2ccc(Oc3ccccc3)cc2)n1`, for which the displacement turned out to be 0%. To `COc1ccc(-c2cc(C(=O)Nc3ccccn3)c3ccccc3n2)cc1OC` belongs -3.9%; to `O=C(O)CN1C(=O)/C(=C\c2ccccc2OCc2ccccc2)SC1=S`, 3%; to `O=c1cc(-c2ccccc2)nc2cc(-c3cccs3)[nH]n12`, 10.3%. To `Cc1cn(S(=O)(=O)c2cc([N+](=O)[O-])ccc2C)cn1` belongs 6.9%; to `CC(C)=C(NC(=O)c1ccccc1)C(=O)Nc1cccc(Br)c1`, 0.4%; to `Nc1ccc2nc(SCC(=O)NC(c3ccccc3)c3ccccc3)sc2c1`, -21.4%. As for `COC(=O)c1ccc(C2CC(=O)NC(C)=C2C(=O)OCc2ccccc2)cc1` (stereo not drawn), the displacement was -8.8%. To `COc1cc(Br)cc(/C=C2\C(=O)NC(=O)N(c3cc(C)cc(C)c3)C2=O)c1OC` belongs -9.1%; to `O=C(c1ccc(Cl)cc1)c1ccc2c(c1)CCCO2`, 1.7%; to `Cc1ccc(C(=O)/C(=C/c2ccc(-c3cccc([N+](=O)[O-])c3)o2)c2nc3ccccc3o2)cc1`, 13.2%. To `Fc1cccc(-c2nc3ccccc3[nH]2)c1` belongs -0.3%.

As to `COc1ccc(C(=O)Nc2sc3c(c2C(N)=O)CCC(C(C)(C)C)C3)cc1` (stereo not drawn), the displacement amounted to 5.9%. To `O=C1C2C3C=CC(C3)C2C(=O)N1/N=C/c1cc(Br)c(O)cc1O` (stereo not drawn) belongs 13.1%; to `CCCCc1ccc(-c2nc(-c3cccnc3)no2)cc1`, -8.8%; to `Cc1ccc(N2C(=O)CSC2c2cccc([N+](=O)[O-])c2)cc1` (stereo not drawn), -7.2%. As for `Cc1cc(NC(=O)c2ccc(Br)o2)ccc1NC(=O)c1ccccc1`, the displacement was 7.8%. To `COc1ccc(Cc2noc(-c3ccc(OC)c(OC)c3)n2)cc1` belongs 11.6%.

In the case of `Cc1cc(/C=C2/SC(=O)NC2=O)c(C)n1-c1cccc(Cl)c1`, the displacement was 18.6%. To `COc1cc(OC)c(OC)cc1CN1CCN(Cc2ccncc2)CC1` belongs 1.1%; to `Cc1ccc(NC(=O)/C=C/c2cccc([N+](=O)[O-])c2)c(Br)c1`, 13.6%. To `O=P(CO)(c1ccccc1)c1ccccc1` belongs 14.4%.

With `COC(=O)COc1ccc(/C=C2\C(=O)NC(=O)N(c3ccc(C)cc3)C2=O)cc1OC`, the displacement is -15.9%. To `COc1cc(/C=C2\C(=O)N(c3ccc(S(N)(=O)=O)cc3)N=C2C)cc(Br)c1OCc1ccccc1` belongs 10%; to `COC(=O)C(C(c1ccccc1)c1cc2ccccc2[nH]1)[N+](=O)[O-]` (stereo not drawn), 3.4%; to `CC1=C(C#N)C(c2cccc(Cl)c2Cl)C2=C(CC(C)(C)CC2=O)N1` (stereo not drawn), -10.1%. Regarding `O=C(Nc1ccc(F)cc1F)c1sc2ccccc2c1Cl`, the displacement worked out at 21.9%. To `CC1CCc2c(nc3ccccc3c2C(=O)O)C1` (stereo not drawn) belongs -14.7%; to `CC1=N/C(=C\c2ccc(OC(F)F)cc2)C(=O)O1`, 5.2%. To `Cn1c(/C=C/c2ccc(C(=O)c3ccccc3)o2)nc2ccccc21` belongs 29.1%; to `Cc1ccc(C2N(c3ccccc3)C(=O)N3CCCN23)cc1` (stereo not drawn), 0.8%; to `CC(C)(C)C(=O)/C=C(O)\C(O)=C/C(=O)C(C)(C)C`, 2.6%. On to `COc1cccc(/C=C2/C=C(c3ccc(Br)cc3)OC2=O)c1OC(C)=O`, for which the displacement was found to be 27.1%. To `CCOc1ccc(N2C(=O)CC(NCc3cccnc3)C2=O)cc1` (stereo not drawn) belongs -6.7%; to `CC1C(O)C(C)C(c2ccccc2)N(C)C1c1ccccc1` (stereo not drawn), -2.6%. To `O=C1C2CC=C(Cl)CC2C(=O)N1CN(Cc1ccco1)CN1C(=O)C2CC=C(Cl)CC2C1=O` (stereo not drawn) belongs -0.2%; to `Cc1ccc(-c2ccccc2)n1-c1ccc(C(=O)NN)cc1`, 12.3%; to `O=C(Nc1cc([N+](=O)[O-])ccc1Cl)C1CC2CCC1C2` (stereo not drawn), 8.8%. To `CS(=O)(=O)N1CCN(S(=O)(=O)c2ccc(Cl)cc2)CC1` belongs -13.4%.

Take `CCc1ccccc1NCC(O)Cn1c2ccccc2c2ccccc21` (stereo not drawn): the displacement worked out at 3%.

With `CCOC(=O)c1c(NC(=O)c2ccc([N+](=O)[O-])cc2)sc2c1CCC2`, the displacement was 9.1%. To `CCOC(=O)c1c(NC(=O)C(Cl)(Cl)Cl)sc2c1CCC2` belongs -3.5%; to `C(=N\N=C(\c1ccccc1)C12CN3CN(CN(C3)C1)C2)/c1cccnc1`, -0.1%; to `COCCCNC(=O)c1cccc([N+](=O)[O-])c1C`, -11.3%. Consider `Cc1ccc(N2C(=O)CC(NCCc3cccc(Cl)c3)C2=O)cc1` (stereo not drawn), for which the displacement stood at 41.2%.

Regarding `C=CCN1C(=O)/C(=C\c2ccc(N(CC)CC)cc2O)C(=O)NC1=S`, the displacement was 22.6%.

Consider `COc1ccc(CN2CCN(Cc3cccc([N+](=O)[O-])c3)CC2)c2ccccc12`, for which the displacement was -34.7%. To `CCCCOC(=O)c1cccc(C(=O)O)n1` belongs 10.5%; to `O=C(NCCCn1ccnc1)c1ccc(Cl)cc1[N+](=O)[O-]`, -8%; to `O=C1CC(N2CCN(c3ccccc3)CC2)C(=O)N1CCc1ccccc1` (stereo not drawn), 11.1%.

Turning to `COc1ccc(C2SCC(=O)N2Cc2ccco2)c(OC)c1` (stereo not drawn), the displacement was -9%. To `O=C(/C=C/c1cccc(N2C(=O)c3ccccc3C2=O)c1)c1cccc(N2C(=O)c3ccccc3C2=O)c1` belongs -0.1%. To `O=[N+]([O-])c1cccc(S(=O)(=O)NCc2ccncc2)c1` belongs -3.8%. To `Cc1ccc(C(=O)Nc2sc3c(c2C(=O)N2CCCCCC2)CCC(C)C3)cc1` (stereo not drawn) belongs 23.4%. Consider `CCOC(=O)C1=C(C)N=c2s/c(=C\c3cc(Br)ccc3OC(C)=O)c(=O)n2C1c1ccccc1` (stereo not drawn), for which the displacement was 3%.

On to `Cc1cccc(OCCOc2ccc(/C=C3/SC(=S)N(C)C3=O)cc2)c1`, for which the displacement stood at 6.2%. To `Cc1ccc(/C=C2\C(=O)NC(=O)N(Cc3ccccc3)C2=O)cc1` belongs -3%. To `O=c1[nH]c(=O)n(-c2cccc(Cl)c2)c(O)c1C=NCc1ccc(F)cc1` belongs 35.2%; to `O=C(CCN1CCCCC1)N/N=C/c1ccc(Br)cc1`, -9.6%; to `O=C(O)CCCCCN1C(=O)C(=O)/C(=C(/O)c2ccccc2)C1c1cccc(F)c1` (stereo not drawn), -11.9%.

As to `CC(=O)Oc1ccc2c3c(c(=O)oc2c1C)CCCC3`, the displacement is -6.4%. As to `C=CCOc1ccc2oc(=O)cc(C)c2c1`, the displacement is 8.5%. For `CN(C)c1ccc(NC(=O)C(=O)NCCC2=CCCCC2)cc1`, the displacement was -9.7%.

As to `COc1ccc(NC2=CC(c3ccccc3F)N(c3ccc(OC)cc3)C2=O)cc1` (stereo not drawn), the displacement was found to be 1.9%. To `N#C/C(=C/c1ccsc1)C(=O)Nc1cccc(Br)c1` belongs -6.2%; to `Cc1ccc(C(C)C)c(OCC(=O)Nc2ccc(O)c(-c3nc4ccccc4o3)c2)c1`, 1.8%. To `COc1ccccc1NC(=O)C(=O)NCCc1ccc(OC)c(OC)c1` belongs 11.1%; to `COc1cccc2cc(C(=O)Nc3cccc(C(C)=O)c3)c(=O)oc12`, 5.7%. To `N#Cc1c(-c2ccccc2)cc(-c2ccccc2Cl)c(C#N)c1N` belongs -14.1%; to `CCOc1cc(/C=N\NC(=O)CNc2ccccc2C)cc(I)c1O`, 6.9%; to `O=C(NCc1ccccn1)c1c(O)c2ccccc2[nH]c1=O`, 3.2%. Turning to `CN(C)c1cc(N/N=C/C=C/c2ccccc2)nc(N(C)C)n1`, the displacement was 2.5%. To `CCOc1c(Br)cc(/C=C2N=C(/C=C/c3ccccc3)OC/2=O)cc1OC` belongs 105%; to `O=C(c1ccccc1F)N1CCN(c2cc(N3CCCC3)c(F)cc2[N+](=O)[O-])CC1`, -3.5%. To `CCOc1ccc(NC(=S)NC(NC(=O)c2cc(OC)c(OC)c(OC)c2)C(Cl)(Cl)Cl)cc1` (stereo not drawn) belongs 13.2%.

As for `O=C(O)C(NS(=O)(=O)c1ccc(Br)cc1)C(O)c1ccccc1` (stereo not drawn), the displacement worked out at 6.5%.

In the case of `CCOc1ccc(N(CC(=O)O)S(=O)(=O)c2ccc(SC)cc2)cc1`, the displacement is 11.8%. Consider `O=C(Nc1ccc(Cl)c(F)c1)c1cnn2c1NC(c1ccc(Br)cc1)CC2C(F)(F)F` (stereo not drawn), for which the displacement was 9.5%. To `Cc1c(N2C(=O)/C(=C/c3ccc(F)cc3)SC2=S)c(=O)n(-c2ccccc2)n1C` belongs 10.8%; to `CCCCOc1c([N+](=O)[O-])cc([N+](=O)[O-])c2nsnc12`, -3.8%; to `COC(=O)c1cc(Br)c(C)c(NC(C)=O)c1[N+](=O)[O-]`, 13.8%. To `Oc1ccc2ccccc2c1/C=N/N1CCN(Cc2cccc3ccccc23)CC1` belongs 0.4%; to `CCN(CC)/C(N)=N/c1nc(C)cc(C)n1`, 6.3%; to `Cc1ccc(/C=C2/SC(=S)N(CC(=O)Nc3ncc(Cc4ccc(C)cc4)s3)C2=O)cc1`, 19.4%.

Consider `O=C(COc1cccc2ccccc12)NCCCN1CCOCC1`, for which the displacement is -17.9%.

As to `COc1ccc(-c2cc(C(=O)Nc3c(C)cc(C)cc3C)c3ccccc3n2)cc1OC`, the displacement was 2.8%. To `Cc1ccc(C(C)C)c(OCC(=O)NNC(=O)/C=C/c2ccc3c(c2)OCO3)c1` belongs -1.6%; to `O=C(Nc1ccc(OC(F)(F)F)cc1)c1ccc(Cl)cc1Cl`, 0.8%. To `O=[N+]([O-])c1cccc(-c2nc(C3COc4ccccc4O3)cs2)c1` (stereo not drawn) belongs 5.6%. As to `O=S(=O)(c1ccc(Br)c2ccccc12)N1CCN(Cc2ccccc2)CC1`, the displacement is -9.8%. To `Cc1ccc(N(CC(=O)NCc2ccc(Cl)cc2)S(C)(=O)=O)cc1` belongs -2.3%; to `O=[N+]([O-])c1ccc(Sc2nnnn2-c2ccccc2)nc1`, -10%. To `COc1ccc(CCNC(=O)C2C3CCC(O3)C2C(=O)O)cc1OC` (stereo not drawn) belongs -1.3%; to `N#CC(C#N)=C1CCCc2ccccc2N1`, 6.6%; to `O=c1oc2c(O)c(O)ccc2c2c1CCC2`, 26.2%. Consider `CCCOc1ccc(C(=O)Nc2ccc(C)cc2[N+](=O)[O-])cc1`, for which the displacement was -5.3%. Take `CCN1CCN(CC(O)CN2CCn3c4c(c5cc(C)ccc53)CCCC42)CC1` (stereo not drawn): the displacement was 24.7%.

With `Cc1ccc2nc(-c3ccc(NC(=O)C4CCC(=O)N4)cc3)sc2c1` (stereo not drawn), the displacement was -32.2%. On to `Cc1ccc(C(=O)/C=C/c2ccc3c(c2)OCO3)cc1`, for which the displacement was determined as 8.8%.

Consider `C=C(C)C(C)(C#CCN1CCCCC1)OCCC#N` (stereo not drawn), for which the displacement was -8%.

As for `Nc1cc(S(=O)(=O)O)cc2cccc(S(=O)(=O)O)c12`, the displacement worked out at 7.8%. To `Cc1no[n+]([O-])c1COc1ccccc1C=O` belongs 16.7%; to `O=C(NNC(=O)c1cccnc1)c1ccc(Br)cc1`, 3.9%.
